Data from the RNAGym collection of RNA variant scans (doi:10.1073/pnas.2313332121).
This sample is rich in variants without activity.

B1: TPR 5TU (parent)
chain: GGAUCUUCUCGAUCUAACAAAAAAGACAAAUCUGCCACAAAGCUUGAGAGCAUCUUCGGAUGCAGAGGCGGCAGCCUUCGGUGGCGCGAUAGCGCCAACGUUCUCAACUAUGACACGCAAAACGCGUGCUCCGUUGAAUGGAGUUUAUCAUG

Variants of: B1
Experiment: polymerase ribozyme fitness, log enrichment relative to wild type (log ratio); higher = more active; in vitro selection for triplet polymerase activity
How it was run: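 Fitness is a logarithmic measure of how a genotype enriched relative to the wild type, with replicate averages weighted by inverse variance. The logarithm uses base 2, and enrichment came from Illumina sequencing of input and output libraries. Those libraries were PCR-built, transcribed mutants of each subunit of a heterodimeric triplet polymerase ribozyme, passed through one triplicate in vitro selection round that included frozen incubation at −7 °C, gel excision of extended constructs and streptavidin-bead capture. Genotypes were kept only if they had ≥10 input reads and ≥1 read per output.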

Polymerase ribozyme fitness (log ratio), ≤ -4.2:
GGAUCUUCUCGAUCUAACAUAAAAGACAAAUCUGCCACAAAGCUUGAGUGCAUCUUCGGAUGCAGAGGCGGCAGCAUUCGGUGGCGAGAUAGCGCCAACGUUCUCAACUAUGACACGCAAAACGCGUGCUCCGUUGAUUGGAGUUUUUCAUG
GGAUCUUCUCGAUCUAACAUAAAAGACAAAUCUGCCACAAGGCAUGAGAGCAUCUUCGGAUGCAGAAGCGGCAGCCUUUGGUGGCCCGAUAGCGCCAACGUUCUCAACUAUGACACGCAAAACGCGUGCUCCGUUGAAUGGAGUUUAUCAUG
GGAUCUUCUCGAUCUAACAUAAAAGACAAAUCUGCCACAAAGCUUGAGAGCAUCUUGGGAUGCAGAGGCAGCAGCCUUCGGUGGCGCGAUAGCGCCAACGGUCUCAACUAUGACACGCAAAACGCGUGCUCCGUUGAAUGGAGCUUAUCAUG
GGAUCUUCUCGAUCUAACAUAAAAGAGAAAUCUGCCACAAAGCUUGAGAGCAUCUUCGGAAGCAGAGGCGGCAGCCUUCGGUGGCGCCAUAGCGCCAACGUUCUCAACUAUGACACGCAAAACGCCUGCUCCGUUGAAUGGAGUUUAUCAUG
GGAUCUUCUCGAUCUAACAUAAAAGACAAAUCUGCUACAAAGCUUGAGAGCAUCUUCGGAUGCAGAGGCGGCAGCCUUCGGUGGCGCGAUAACGCCAACGUUCUCAACUAUGACACGCAAAACGCGUGCUCCGUUGAAUGGAGUUUAUCAUG
GGAUCUUCUCGAUCUAACAUAAAAGACAAAUCUGCCACAAAGCUUGAGCGCAUCUUCCGAUGCAGAGGCGGCAGCCUUCGGUGGCGGGAUAGCGCCAACGUUCUCAACUAUGACACGCAAAACGCGUGCUCCGUUGAAUGGAGUUUAUCAUG
GGAUCUUCUCGAUCUAACAUAAAAGACAAAUCUGCCACAAAGCUUGAGAGCAUCUUCGGAUGCAGAGGCGGCUGCCUUCGGUGGCGCGAUAGGGCCAACGUUCUCAACUAUGACACGCAAGACGCGUGCUCCGUUGAAUGGGGUUUAUCAUG
GGAUCUUCUCGAUCUAACAUAAAAGUCAAAUCUGCCACAAAUCUUGAGGGCAUCUUCGGAUGCAGAGGCGGCAGCCUUCGGUGGCGCGAUAGCGCCAACGUUCUCAUCUAUGACACGCAAAACGCGUGCUCCGUUGAAUGCAGUUUAUCAUG
GGAUCUUCUCGAUCUAACAUAAAAGACAAAUCUGCCACAAAGCUUGAGAGCAUCUUCGGAUGCAGCGGCGGCAGCCUUCGGUGGCGCGAUAGCGCCAACGUUCUCAACUAUGACACGCAAAACGCGUGCUCCGUUGAAUGGAGUUUAUCAUG
GGAUCUUCUCGAUCUAACAUAAAAGACAAAUCUGCCAAAAAGGUUGAGAGCAUCUUCGGAUGCAGAGGCGGCAGCCUUCGGUGGCGCGAUAGGGCCAACGUUCUCAACUAUGACACGCAAAACGCGUGCUCCGUUGAAUAGAGUCUAUCAUG
GGAUCUUCUCGAUCUAACAUAAAAGACAUAUCUGCCACAAAGCUUAAGAGCAUCUUCUGAUGCAGAGGCGGCAGCAUUCGGUGGCGCGAUACCGCCAACGUUGUCAACUAUGACACGCAAAACGCGUGCUCCGUUGAAUGGAUUUUAUCAUG
GGAUCUUCUCGAUCUAACAUAAAAGACAAUUCUGACACAAAGCUUGAGAGCAUCUUCGGAUGCAGAGUCGGCAGCCUUCGGUGGCGCGAUAGCGCCAACGUUCUCAACUAUGACACGCAAAACGCGUGCUCCGUUGAAUGGAGUUUAUCAUG
GGAUCUUCUCGAUCUAACAUAAAAGACAAAUCUGCCACAAAGCUUGAGUGCAUCUUCGGAUGCAGAGGCGGCAGCCUUCGGUGGCGCGGUAGCGUCAACGUUCUAAACUAUGACACGCAAAACGCGUGCUCCGUUGAAUGGAGUUAAUCAUG
GGAUCUUCUCGAUCUAACAUAAAAGACAAAUCUGCCACAAAACUUGAGAGCAUCUUCGGAUGCAGAGGCGGCAGCCUUCGGUGGCCCGAUAGCGCCAACGUUCUCAACUAUGACACGCAAAACGCUUGCUCCGUUGAAUGGAGUUUAUCCUG
GGAUCUUCUCGAUCUAACAUAAAAGACAAAUCUGCCACAAAGCUUGAAAACAUCUUCGGAUGCAGAAGCGGCAGCCUUCGGUGGCGCAAUAGCGACAACGUUCUCAACUAUGACACGCAAAACGCGUGCUCCGUUGAAUGGAGUUUAUUAUG
GGAUCUUCUCGAUCUAACAUAAAAGACAAAUCUGCUACAAAGCUUGAGAGCAUGUUCGGAUGCAGAGGCGGCAGCCUUCGCUGGCGCGAUAACGCCAAUGUUCUCAACUAUGACACGCAAAACGCGUGCUCCGUUGAAUGGAGUUUAUAAUG
GGAUCUUCUCGAUCUAACAUAAAAGAAAAAUCUGCCACAAAGCUUGAGAGCAUCUUCGGAUGCAGAGGCGGCAGCCUUCGGUGGCGCGAUAGCGUCAACGUUCUCAACUAUGACACGCAAAACGCGUGCUCCGUUGAAUGGAGUUUAUCAUG
GGAUCUUCUCGAUCUAACAUAAAAGACAAAUCUGCCACAAAGCUUGAGAGCAUCUUCGGAUGCAGAGGCGGCAGCCUUCGGUGGCGGGAUAGCGCCAACGUUCUCAACUAUGACACGCAAAACGCGUGCUCCGUUGAAUGGAGUUUAUCAUG
GGAUCUUCUCGAUCUAACAUAAAAGUCAAAUCUGCCACAAAGCUUGAGAGCAUCUUCGGAUGCAGAGGCGGCAGCCUUCGGUGUCGCGAUAGCGCCAACGUUCUCAACUAUGACACGCAAAACGCGUGCUCCGUUGAAUGGAGUUUAUCAUG
GGAUCUUCUCGAUCUAACAUAAAAGACAAAUCUGCGACAAAGCUUGAGAGCAUCUUCGCAUGCAGAGGCGGCAGCCUUCGGUAGCGCGAUAGCGCCAUCGUUCUCACCUAUGACACGCAAAACGCGUGCUCCGUUGAAUGGAGUUUAUCAUG
GGAUCUUCUCGAUCUAACAUAAAAGACUAAACUGCCACAAAGCUUGAGAGCGUCUUCGGAUGCAGAGGCGGCAACCUUCGGUGGCGCGAUAGCUCCAGCGUUCUCAACUAUGACACGCAAAACGCGUGCUCCGUUGAAUGGAGUUUAUCAUG
GGAUCUUCUCGAUCUAACAUAAAAGACAAAUCUGCCACAAAGCUUGAGAGCAUCUUCGGAUGCAGAGGCGGCAGCCUUCGGUGGCGCGAUUGCGCGAACGUUCUCAACUAUGACACGCAAAACGCGCGCUCCGUUGAAUGGAGUUUAUCAUG
GGAUCUUCUCGAUCUAACAUAAAAGACAAAUCUGCCACAAAGCUUGAGAGCAUCUUCGGAUGCAGAGGCGGCAGCCUUCGGUGGCGCGUUAGCGCCAACGUUCUCAACUAUGACACGCAAAACGCGUGCUCAGUUGAAUAGAGUUUAUCAUG
GGAUCUUCUCGAUCUAACAUAAAAGACAUAUCUGCCACAAAGCUUGAGAGCAUCUUCCGAUGCAGAGGCGGCAGCCAUCGGAGGCGCGCUAGCGCCAAAGUUCUCAACUAUGACACGAAAAACGCGUGCUCCGUUGAAUGGAGUUUAUCAUG
GGAUCUUCUCGAUCUAACAUAAAAGACUAAUCUGCCACAAAGCUUGAGCGCAUCAUCGGAUGCAGAGGCGGUAGCCUUCGGUGGCGCGAUAGCGCCAACGUUCUCAACUAUGACACGCAAAACGCGUGCUCCGUCGAAUGGAGUUUAUCAUG
GGAUCUUCUCGAUCUAACAUAAAAGACAAAUCUGCCACAUAGCUUGAGAGCAUAUUCGGAUGCAGAGGCGGAAGCCUUCGGUGGCGCGAUAGCGCCAACGUUCUCAACUACGAGACGCAAAACGCGUGCUCCGUUGAAUGGAGUUUAUCAUG
GGAUCUUCUCGAUCUAACAUAAAAGACAAAUCUGCCACAAAGCUUGAGAGAAUCUUCGGAUGCAGAGGCGGCAGCCUUCGGUGGCCCGAUAGCGCCAACGUUCUCAACUAUGACACGCAAAACGCGUGCUCCGUUGAAUGGAGUUUAUCAUG
GGAUCUUCUCGAUCUAACAUAAAAGACAAAUCUGCCCCAAAGCUUGAGAGCAUCUUCGGAUGCAGAGGCGGCAGCCUUCGGUGGCGCGAUAGCGCCAACGUUCUCAACUAUGACACGCAAAACGCGUACUCCGUUGAAUGGAGUUUAUCAUG
GGAUCUUCUCGAUCUAACAUAAAAGACAAAUCUGCCACAAAGCUUGAGAGCAUCUUCGGGUGCAGAGGCGGCAGCCUUCGGUGGUGCGAUAGCGCCAACGUUCUCAACUAUGACACGCAAAACGCGUGCUCCGUGGAAUGGAGUUUAUCAUG
GGAUCUUCUCGAUCUAACAUAAAAGACAAAUCUGCCACAAAGCUUGAGAGCAUCUUCGGAUGCAGAGGCGGCAGUCUUCGGUGGCGCGAUAGCGCCAACGUUCUCAACUAUGACGCGCAAAACGCGUGCUCCGUGGAAUCGAGUUUAUCAUG
GGAUCUUCUCGAUCUAACAUAAAAGACAAAUCUGCCACAAAGCUUGAGAGCUUCUUCGGAUGCAGAGGCGGCAGCCUUUGGUGGCGCGAUAGCGCCAAGGUUCUCAACUAUGACACGCAAAACGCGUGCUCCGUUGAAUGGAGUAAAUCAUG
GGAUCUUCUCGAUCUAACAUAAAACACCAAUCUGACACAAAGCUUGAUAGCAUCUUCGGAUGCAGAGGCGGCAGCCUUCGGUGGCGCGAUAGCGUCACCGUUCUCAACUAUGACACCCAAAACGCGUGCUCCGUUGAAUGGAGUUUAUCAUG
GGAUCUUCUCGAUCUAACAUAAAAGACAAAUCUGCCACAAAGUUUGAGCGCUUCUUCGGAUGCAGCGGCGGCAGCCUUCGGUGGCGCGAUUGCGCCAACGUUCUCAACUAUGCCACGCAAAACGCGUGCUCCGUUGAAUGGAGUUUAUCAUG
GGAUCUUCUCGAUCUAACAUAAAAGACAAAUCUGCCACAAAGGUUGAGAGCAUGUUCGGAUGCAGAAGCGGCAGCCCUCGGUGGCGCGAUAGCGCCAACGUUCUCAACUAUGACACGCAAAACGCGUGCUCCGUUGAAUGGAGUUUAUCAUG
GGAUCUUCUCGAUCUAACAUAAAAUACAAAUCUGCCACAAAGCUUGAGAGCAUCUUCAGAUGCAGAGGCGGCAGCCUUCGGUGGCGCGAUAGCGCCAACGUUCUCAACUAUGACACGCAAAACGCGUGCUCCGUAUAAUGGAGUUUAUCAUG
GGAUCUUCUCGAUCUAACAUAAAAGACAAAUCUGCCACAAAGCUUGAAAGCAUCUUCGGAUGCAGAGGCGGCAGCCUUCGGAGGCGCGAUAGCGACAACGUUCUCAACUAUGACUCGCAAAACGCGUGCUCCGUGGAAUGGAGUUUAUCAUG
GGAUCUUCUCGAUCUAACAUAAAAGACAAAUCUGCCACAGAGCAUGAGAGCAUCUUCGGAUGCAGAGGCGGCAGCCUUCGGUGGCGAGAUAGCGCCAACGUUCUCAACUAUGAUACGCAAAACGCGUGGUCCGUUGAAUGGAGUUUAUCAUU
GGAUCUUCUCGAUCUAACAUAAAAGACAAAUCUGCCACAAAGCUUGACAGCUUCUUCUGAUACAGAGGCGGCAGCCUUCGGUAGCGCGAUAGCGCCAACGUUCUCAUCUAUGACACGCAAAACGCGUGCUCCGUUGAAUGGAGUUUAUCAUG
